Paper PMC6919601, “Identification of Plasmodium dipeptidyl aminopeptidase allosteric inhibitors by high throughput screening” (PLoS ONE, 2019)
“And” between values parts separate entries of the source, which are not always exact repeats. Identical values can stand only once. Out of some 110,000 compounds screened, about 230 (0.21%) showed an effect of 50% or more. The list shows a part of the results.

Each compound was assayed against DPAP1 (Plasmodium falciparum, UniProt Q8IIJ9) (assay: primary screen, percent inhibition; read by cleavage of a fluorogenic dipeptide substrate; higher = more effect of the substance).
Sequence of DPAP1 (Q8IIJ9 whole entry, looked up): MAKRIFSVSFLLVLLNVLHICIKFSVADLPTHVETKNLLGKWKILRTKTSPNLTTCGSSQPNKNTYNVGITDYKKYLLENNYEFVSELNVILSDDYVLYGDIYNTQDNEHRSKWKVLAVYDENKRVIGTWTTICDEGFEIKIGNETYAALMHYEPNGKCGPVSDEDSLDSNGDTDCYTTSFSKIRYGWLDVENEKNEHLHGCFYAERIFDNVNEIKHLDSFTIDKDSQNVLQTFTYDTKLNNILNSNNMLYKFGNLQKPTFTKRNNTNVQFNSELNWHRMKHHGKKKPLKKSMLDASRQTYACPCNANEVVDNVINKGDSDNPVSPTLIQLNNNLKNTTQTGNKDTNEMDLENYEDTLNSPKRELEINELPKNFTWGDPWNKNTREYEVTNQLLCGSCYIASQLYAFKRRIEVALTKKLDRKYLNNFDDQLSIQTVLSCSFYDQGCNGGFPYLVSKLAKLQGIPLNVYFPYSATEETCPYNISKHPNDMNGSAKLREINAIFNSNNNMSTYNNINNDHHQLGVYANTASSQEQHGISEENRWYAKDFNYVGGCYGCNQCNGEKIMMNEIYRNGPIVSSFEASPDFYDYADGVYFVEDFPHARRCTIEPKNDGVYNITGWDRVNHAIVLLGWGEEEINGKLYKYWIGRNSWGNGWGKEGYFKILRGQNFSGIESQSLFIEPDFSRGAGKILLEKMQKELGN
Parameters: species or system P. falciparum D10 trophozoite lysates; single well
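Also: 30 min substrate incubation versus DMSO and 10 µM JCP410 controls.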

Compound	% Inhibition @ 10 uM
COCCCNC(=O)CSc1[nH]c(-c2cc(OC)c(OC)c(OC)c2)nc1-c1ccc(F)cc1	1.85%
COc1ccccc1/C=c1/[nH]c(=O)/c(=C\c2ccccc2OC)[nH]c1=O	1.44%
Nc1c(N2CCN(c3ccccc3)CC2)c2ccccc2oc1=O	-4.3%
O=C(c1csc2c1CCCC2)N1CCN(c2ccccn2)CC1	-2.74%
COc1ccccc1-c1nc(-c2cccnc2)no1	4.65%
Cc1cccc(NC(=O)CN2C(=O)N/C(=C\c3cc(C)n(-c4ccccc4)c3C)C2=O)c1	0.635%
Cc1ccc(NS(=O)(=O)c2ccc(NC(=O)C3CC3)cc2)c(C)c1	2.95%
COc1cc(-c2cccs2)c(OC)cc1-c1cccs1	-1.65%
Cc1nnc(N2CCC(C(=O)NCCN3CCCCC3C)CC2)c2nn(-c3ccccc3)c(C)c12 (stereo not shown)	6.1%
COc1ccc2c(c1OC)C(=O)OC2Nc1ncccc1C (stereo not shown)	-4.7%
CCn1cc(CNC(=O)Cn2nc(C(F)(F)F)cc2C2CC2)cn1	0.709%
CNCC(=O)Nc1ccc2c(c1)Nc1ccccc1CC2	-2.47%
CCOC(=O)c1nnn(-c2nonc2N)c1-c1ccc(C)cc1	-3.64%
Cc1ccsc1C1C(C#N)=C(N)Oc2[nH]c(-c3ccccc3)nc21 (stereo not shown)	5.52%
CC(C)/N=C(\N=C(\NS(=O)(=O)c1ccccc1)c1ccccc1)c1ccc(Br)cc1	-1.29%
Cc1ccc2c(c1)-c1c(cnn1CC(=O)NCCc1ccsc1)CO2	-6.42%
CCSc1nc2c(c(=O)n1CC1CCCC1)C1(CCCCC1)Cc1ccccc1-2	3.01%
CC1=C(C(=O)Nc2ccc(Cl)cc2)C(c2ccc3c(c2)OCO3)n2ncnc2N1 (stereo not shown)	2.93%
CC1=CC(C)(C)N(C(=O)CN2C(=O)C3CCCCC3C2=O)c2ccccc21 (stereo not shown)	1.57%
Cc1ccc(S(=O)(=O)NCC(=O)N2CCN(Cc3ccccc3)CC2)cc1	4.94%
COCC(C)NCc1ccc(OC)c(C)c1 (stereo not shown)	-1.54%
CC(=O)Nc1cccc(NC(=O)c2ccco2)c1	4.66%

Compound	% Inhibition @ 10 uM
c1cnc(N2CCN(Cc3ccsc3)CC2)nc1	7.03%
O=C(O)c1ccc(C2(c3ccc(C(=O)O)cc3)OC(=O)c3ccccc32)cc1	-6.99%
Cn1c(NCc2c[nH]nc2-c2cccs2)nc2ccccc21	3.24%
Cc1ccc(S(=O)(=O)N(CC(=O)NC2CC2)C2CCCCC2)cc1	-1.4%
CCn1c2ccccc2c2cc(/C=C(\C#N)c3nn(CCO)c(N)c3C#N)ccc21	4.66%
FC(F)(F)COc1nc(OCC(F)(F)F)nc(OCC(F)(F)F)n1	4.22%
CC(=O)Nc1ccc(NC(=O)C2CCCN(c3ncnc4c3nc3n4CCCCC3)C2)cn1 (stereo not shown)	-0.238%
CCOc1ccc(CNC(=O)C2=Cc3sc4c(c3CS2)CCCC4)cc1	15.7%
CCN(C(=O)Cc1ccccc1)c1ccccc1C	0.135%
Cc1ccnc(NC(=O)C(c2ccccc2)N2Cc3ccccc3C2=O)c1 (stereo not shown)	1.66%
N#CCCN1CCN(C2=NC(=O)/C(=C/c3ccccc3)S2)CC1	4.08%
O=C(C1=NOC2(C(=O)c3ccccc3C2=O)C1c1ccccc1)c1ccccc1 (stereo not shown)	-3.58%
Cc1cccc(NS(=O)(=O)c2ccc(Cl)cc2)c1C	1.91%
Cc1ccc(-n2c(-c3ccncc3)nc3ccccc3c2=O)cc1	-4.43%
Cc1cc(N2CCNCC2)n2ncnc2n1	-2.91%
CCc1ccccc1-n1nnc(-c2nc(-c3ccccc3)no2)c1N	-9.7%
Cc1cc(O)nc(SCCOc2ccc(C)c(C)c2)n1	0.512%
CN(C(=O)c1ccc([N+](=O)[O-])cc1)c1ccccc1	-3.04%
CCO/C(O)=C1\C(C)=Nc2nc(-c3cc(OC)cc(OC)c3)nn2C1c1ccc(OC)cc1 (stereo not shown)	0.0842%
COc1ccc(NCc2ccc(OC)c(C)c2)cc1	-3.8%
Cc1noc2c1/C(=N\O)CC(c1ccccc1)C2 (stereo not shown)	0.774%
O=C1NC(=S)N(c2cccc(Cl)c2)C(=O)/C1=C/c1ccc(Cl)cc1	12%

Compound	% Inhibition @ 10 uM
CCc1ccc(N2C(=O)NC(=O)/C(=C(/C)O)C2=O)cc1	-8.29%
CC(=O)Nc1ccc(C)c(NC(=O)c2ccc(Cl)cc2Cl)c1	-4.61%
COc1cccc(/C=C/c2ccncc2)c1OC	4.16% and 14%
CC(=O)c1c(O)ccc2c(C)cc(=O)oc12	1.7%
Cc1cccc(CCNc2ncnc3onc(-c4ccc(F)cc4)c23)c1	1.57%
CC(C)Cn1c(=O)c2sccc2n2c(CCCC(=O)NCc3ccccc3)nnc12	-2.15%
O=C(NCCc1ccccc1)C1CC(=O)N(C2CCCCCC2)C1 (stereo not shown)	14.9%
COc1ccc(-c2csc(/C(C#N)=C/c3ccco3)n2)cc1	-0.771%
O=C(c1ccc(Cl)cc1)C(CN1CCCCC1)c1ccccc1 (stereo not shown)	3.05%
COc1ccc(/C=C2\SC(=O)N(CC(=O)Nc3ccc(C)cc3)C2=O)cc1C	-0.598%
CC1(C)CC(NCc2ccco2)CCO1 (stereo not shown)	-6.95%
Nc1ccc(-c2nc3cc(N)ccc3n2CCO)cc1	-5.41%
CCOc1ccc(C2C3=C(O)CC(C)(C)CC3=NC(C)=C2C(=O)Nc2ccccn2)cc1 (stereo not shown)	-0.305%
CN(C)S(=O)(=O)c1ccc(C(=O)Nc2c3c(nn2-c2cccc(Cl)c2)CSC3)cc1	3.06%
O=C(CSc1nnc2scc(-c3ccccc3)n12)Nc1nc(-c2ccccc2)ns1	-0.0626%
CCOC(=O)c1c(C)n(C)c2ccc(OCC(O)CNC(C)c3ccccc3)cc12 (stereo not shown)	-6.94%
Clc1cccc(OCCCCCCN2CCCCC2)c1	-2.12%
CCc1cc(C)cc(OCCOc2cccc(C=C3C(=O)N(C)C(=O)N(C)C3=O)c2)c1	-4.01%
COc1ccc(C(=O)CC2(O)C(=O)N(CC(N)=O)c3ccccc32)cc1 (stereo not shown)	-10.2%
Cc1ccc(S(=O)(=O)N2C(=O)CCC2C(=O)NCCOc2ccccc2C)cc1 (stereo not shown)	4.19%
